Measured values reported in the supplement of paper PMC8728848.
Some of the results follow.

Legend:
Assay in all cases: glycan array binding signal (z-score within array); higher = stronger binding
Conditions in all cases: glycan notation: IUPAC condensed, linker removed
[1] = biological target: Neu5Ac(a2-3)Gal6S(b1-4)[Fuc(a1-3)]GlcNAc
In short: (§1)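 Glycan array data came from 3228 arrays in the Consortium for Functional Glycomics database, and only arrays with an available protein sequence were kept. Glycan names were put into IUPAC-condensed notation, and columns mapping to the same glycan were averaged. The binding signal is a within-array Z-score, averaged across arrays of one protein sequence run at different concentrations or buffers and across linkers. A negative Z-score can be read as non-binding.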

Neu5Ac(a2-3)GalNAc = biological target: Neu5Ac(a2-3)GalNAc
In short: as §1

[2] = biological target: Neu5Ac(a2-3)GalNAc(b1-4)GlcNAc
In short: as §1

[3] = biological target: Neu5Ac(a2-3)[GalNAc(b1-4)]Gal(b1-4)Glc
In short: as §1

[4] = biological target: Neu5Ac(a2-3)[GalNAc(b1-4)]Gal(b1-4)GlcNAc
In short: as §1

[5] = biological target: Neu5Ac(a2-3)[GalNAc(b1-4)]Gal(b1-4)GlcNAc(b1-3)GalNAc
In short: as §1

[6] = biological target: Neu5Ac(a2-3)[Neu5Ac(a2-6)]GalNAc
In short: as §1

Neu5Ac(a2-6)Gal = biological target: Neu5Ac(a2-6)Gal
In short: as §1

[7] = biological target: Neu5Ac(a2-6)Gal(b1-3)GlcNAc(b1-3)[Gal(b1-4)GlcNAc(b1-6)]Gal(b1-4)Glc
In short: as §1

Neu5Ac(a2-6)Gal(b1-4)Glc = biological target: Neu5Ac(a2-6)Gal(b1-4)Glc
In short: as §1

[8] = biological target: Neu5Ac(a2-6)Gal(b1-4)GlcNAc
In short: as §1

[9] = biological target: Neu5Ac(a2-6)Gal(b1-4)GlcNAc(b1-2)Man
In short: as §1

[10] = biological target: Neu5Ac(a2-6)Gal(b1-4)GlcNAc(b1-2)Man(a1-3)Man(b1-4)GlcNAc(b1-4)GlcNAc
In short: as §1

[11] = biological target: Neu5Ac(a2-6)Gal(b1-4)GlcNAc(b1-2)Man(a1-3)[Gal(b1-4)GlcNAc(b1-2)Man(a1-6)]Man(b1-4)GlcNAc(b1-4)GlcNAc
In short: as §1

[12] = biological target: Neu5Ac(a2-6)Gal(b1-4)GlcNAc(b1-2)Man(a1-3)[GlcNAc(b1-2)Man(a1-6)]Man(b1-4)GlcNAc(b1-4)GlcNAc
In short: as §1

[13] = biological target: Neu5Ac(a2-6)Gal(b1-4)GlcNAc(b1-2)Man(a1-3)[GlcNAc(b1-4)][Neu5Ac(a2-6)Gal(b1-4)GlcNAc(b1-2)Man(a1-6)]Man(b1-4)GlcNAc(b1-4)GlcNAc
In short: as §1

[14] = biological target: Neu5Ac(a2-6)Gal(b1-4)GlcNAc(b1-2)Man(a1-3)[Man(a1-6)]Man(b1-4)GlcNAc(b1-4)GlcNAc
In short: as §1

[15] = biological target: Neu5Ac(a2-6)Gal(b1-4)GlcNAc(b1-2)Man(a1-3)[Neu5Ac(a2-3)Gal(b1-4)GlcNAc(b1-2)Man(a1-6)]Man(b1-4)GlcNAc(b1-4)GlcNAc
In short: as §1

[16] = biological target: Neu5Ac(a2-6)Gal(b1-4)GlcNAc(b1-2)Man(a1-3)[Neu5Ac(a2-6)Gal(b1-4)GlcNAc(b1-2)Man(a1-6)]Man(b1-4)GlcNAc(b1-4)GlcNAc
In short: as §1

[17] = biological target: Neu5Ac(a2-6)Gal(b1-4)GlcNAc(b1-2)Man(a1-3)[Neu5Ac(a2-6)Gal(b1-4)GlcNAc(b1-2)Man(a1-6)]Man(b1-4)GlcNAc(b1-4)[Fuc(a1-6)]GlcNAc
In short: as §1

[18] = biological target: Neu5Ac(a2-6)Gal(b1-4)GlcNAc(b1-2)Man(a1-6)Man(b1-4)GlcNAc(b1-4)GlcNAc
In short: as §1

[19] = biological target: Neu5Ac(a2-6)Gal(b1-4)GlcNAc(b1-2)Man(a1-6)[Gal(b1-4)GlcNAc(b1-2)Man(a1-3)]Man(b1-4)GlcNAc(b1-4)GlcNAc
In short: as §1

[20] = biological target: Neu5Ac(a2-6)Gal(b1-4)GlcNAc(b1-2)Man(a1-6)[GlcNAc(b1-2)Man(a1-3)]Man(b1-4)GlcNAc(b1-4)GlcNAc
In short: as §1

[21] = biological target: Neu5Ac(a2-6)Gal(b1-4)GlcNAc(b1-2)Man(a1-6)[Man(a1-3)]Man(b1-4)GlcNAc(b1-4)GlcNAc
In short: as §1

[22] = biological target: Neu5Ac(a2-6)Gal(b1-4)GlcNAc(b1-2)[Neu5Ac(a2-6)Gal(b1-4)GlcNAc(b1-4)]Man(a1-3)[GlcNAc(b1-4)][Neu5Ac(a2-6)Gal(b1-4)GlcNAc(b1-2)[Neu5Ac(a2-6)Gal(b1-4)GlcNAc(b1-6)]Man(a1-6)]Man(b1-4)GlcNAc(b1-4)GlcNAc
In short: as §1

[23] = biological target: Neu5Ac(a2-6)Gal(b1-4)GlcNAc(b1-2)[Neu5Ac(a2-6)Gal(b1-4)GlcNAc(b1-4)]Man(a1-3)[GlcNAc(b1-4)][Neu5Ac(a2-6)Gal(b1-4)GlcNAc(b1-4)Man(a1-6)]Man(b1-4)GlcNAc(b1-4)GlcNAc
In short: as §1

[24] = biological target: Neu5Ac(a2-6)Gal(b1-4)GlcNAc(b1-2)[Neu5Ac(a2-6)Gal(b1-4)GlcNAc(b1-6)]Man(a1-6)[Neu5Ac(a2-6)Gal(b1-4)GlcNAc(b1-2)Man(a1-3)][GlcNAc(b1-4)]Man(b1-4)GlcNAc(b1-4)GlcNAc
In short: as §1

[25] = biological target: Neu5Ac(a2-6)Gal(b1-4)GlcNAc(b1-3)Gal(b1-3)GlcNAc
In short: as §1

[26] = biological target: Neu5Ac(a2-6)Gal(b1-4)GlcNAc(b1-3)Gal(b1-4)GlcNAc
In short: as §1

[27] = biological target: Neu5Ac(a2-6)Gal(b1-4)GlcNAc(b1-3)Gal(b1-4)GlcNAc(b1-2)Man(a1-3)[Neu5Ac(a2-6)Gal(b1-4)GlcNAc(b1-3)Gal(b1-4)GlcNAc(b1-2)Man(a1-6)]GalNAc
In short: as §1

[28] = biological target: Neu5Ac(a2-6)Gal(b1-4)GlcNAc(b1-3)Gal(b1-4)GlcNAc(b1-3)Gal(b1-4)GlcNAc
In short: as §1

[29] = biological target: Neu5Ac(a2-6)Gal(b1-4)GlcNAc(b1-3)Gal(b1-4)GlcNAc(b1-3)Gal(b1-4)GlcNAc(b1-2)Man(a1-3)[Neu5Ac(a2-6)Gal(b1-4)GlcNAc(b1-3)Gal(b1-4)GlcNAc(b1-3)Gal(b1-4)GlcNAc(b1-2)Man(a1-6)]GalNAc
In short: as §1

[30] = biological target: Neu5Ac(a2-6)Gal(b1-4)GlcNAc(b1-3)Gal(b1-4)GlcNAc(b1-3)GalNAc
In short: as §1

[31] = biological target: Neu5Ac(a2-6)Gal(b1-4)GlcNAc(b1-3)Gal(b1-4)GlcNAc(b1-3)[Neu5Ac(a2-6)Gal(b1-4)GlcNAc(b1-3)Gal(b1-4)GlcNAc(b1-6)]GalNAc
In short: as §1

[32] = biological target: Neu5Ac(a2-6)Gal(b1-4)GlcNAc(b1-3)Gal(b1-4)GlcNAc(b1-6)[Gal(b1-3)]GalNAc
In short: as §1

[33] = biological target: Neu5Ac(a2-6)Gal(b1-4)GlcNAc(b1-3)Gal(b1-4)[Fuc(a1-3)]GlcNAc(b1-3)Gal(b1-4)[Fuc(a1-3)]GlcNAc
In short: as §1

[34] = biological target: Neu5Ac(a2-6)Gal(b1-4)GlcNAc(b1-3)GalNAc
In short: as §1

[35] = biological target: Neu5Ac(a2-6)Gal(b1-4)GlcNAc(b1-3)[Neu5Ac(a2-6)Gal(b1-4)GlcNAc(b1-6)]GalNAc
In short: as §1

[36] = biological target: Neu5Ac(a2-6)Gal(b1-4)GlcNAc(b1-6)GalNAc
In short: as §1

[37] = biological target: Neu5Ac(a2-6)Gal(b1-4)GlcNAc(b1-6)[Gal(b1-3)GlcNAc(b1-3)]Gal(b1-4)Glc
In short: as §1

[38] = biological target: Neu5Ac(a2-6)Gal(b1-4)GlcNAc(b1-6)[Gal(b1-3)]GalNAc
In short: as §1

[39] = biological target: Neu5Ac(a2-6)Gal(b1-4)GlcNAc6S
In short: as §1

Neu5Ac(a2-6)GalNAc = biological target: Neu5Ac(a2-6)GalNAc
In short: as §1

[40] = biological target: Neu5Ac(a2-6)GalNAc(b1-4)GlcNAc
In short: as §1

[41] = biological target: Neu5Ac(a2-6)GalNAc(b1-4)GlcNAc6S
In short: as §1

B1: MUB40 (Lactobacillus reuteri) (peptide)
chain: CTAEGIKKFEGDGYELFKDNFPAGEKFDNDDTNDQFYTVIF
**Q.** With B1 as the binder, how does the “glycan array binding signal (z-score)” value [1] read?
**A.** 0.706

**Q.** What about the “glycan array binding signal (z-score)” value (Neu5Ac(a2-3)GalNAc) of the same binder?
**A.** -0.447

**Q.** What about the “glycan array binding signal (z-score)” value [2] of the same binder?
**A.** -0.323

**Q.** And the “glycan array binding signal (z-score)” value [3]?
**A.** -0.479

**Q.** What about the “glycan array binding signal (z-score)” value [4] of the same binder?
**A.** 0.061

**Q.** And the “glycan array binding signal (z-score)” value [5]?
**A.** 1.71

**Q.** And the “glycan array binding signal (z-score)” value [6]?
**A.** 1.33

**Q.** What about the “glycan array binding signal (z-score)” value (Neu5Ac(a2-6)Gal) of the same binder?
**A.** 0.078

**Q.** What about the “glycan array binding signal (z-score)” value [7] of the same binder?
**A.** 0.395

**Q.** What about the “glycan array binding signal (z-score)” value (Neu5Ac(a2-6)Gal(b1-4)Glc) of the same binder?
**A.** -0.496

**Q.** And the “glycan array binding signal (z-score)” value [8]?
**A.** -0.246

**Q.** What about the “glycan array binding signal (z-score)” value [9] of the same binder?
**A.** -0.266

**Q.** What about the “glycan array binding signal (z-score)” value [10] of the same binder?
**A.** -0.774

**Q.** And the “glycan array binding signal (z-score)” value [11]?
**A.** 0.082

**Q.** What about the “glycan array binding signal (z-score)” value [12] of the same binder?
**A.** -0.291

**Q.** What about the “glycan array binding signal (z-score)” value [13] of the same binder?
**A.** -0.443

**Q.** And the “glycan array binding signal (z-score)” value [14]?
**A.** 0.634

**Q.** What about the “glycan array binding signal (z-score)” value [15] of the same binder?
**A.** 1.59

**Q.** And the “glycan array binding signal (z-score)” value [16]?
**A.** 1.95

**Q.** What about the “glycan array binding signal (z-score)” value [17] of the same binder?
**A.** -0.176

**Q.** And the “glycan array binding signal (z-score)” value [18]?
**A.** -0.414

**Q.** What about the “glycan array binding signal (z-score)” value [19] of the same binder?
**A.** 0.438

**Q.** And the “glycan array binding signal (z-score)” value [20]?
**A.** 1.1

**Q.** What about the “glycan array binding signal (z-score)” value [21] of the same binder?
**A.** -0.413

**Q.** And the “glycan array binding signal (z-score)” value [22]?
**A.** 0.5

**Q.** And the “glycan array binding signal (z-score)” value [23]?
**A.** -0.219

**Q.** And the “glycan array binding signal (z-score)” value [24]?
**A.** -0.381

**Q.** What about the “glycan array binding signal (z-score)” value [25] of the same binder?
**A.** -0.175

**Q.** What about the “glycan array binding signal (z-score)” value [26] of the same binder?
**A.** 0.931

**Q.** And the “glycan array binding signal (z-score)” value [27]?
**A.** 0.015

**Q.** And the “glycan array binding signal (z-score)” value [28]?
**A.** 1.56

**Q.** What about the “glycan array binding signal (z-score)” value [29] of the same binder?
**A.** 0.292

**Q.** What about the “glycan array binding signal (z-score)” value [30] of the same binder?
**A.** 3.03

**Q.** And the “glycan array binding signal (z-score)” value [31]?
**A.** -0.339

**Q.** What about the “glycan array binding signal (z-score)” value [32] of the same binder?
**A.** -0.408

**Q.** And the “glycan array binding signal (z-score)” value [33]?
**A.** 1.24

**Q.** And the “glycan array binding signal (z-score)” value [34]?
**A.** 1.14

**Q.** What about the “glycan array binding signal (z-score)” value [35] of the same binder?
**A.** -0.239

**Q.** And the “glycan array binding signal (z-score)” value [36]?
**A.** -0.552

**Q.** And the “glycan array binding signal (z-score)” value [37]?
**A.** -0.114

**Q.** And the “glycan array binding signal (z-score)” value [38]?
**A.** -0.414

**Q.** And the “glycan array binding signal (z-score)” value [39]?
**A.** -0.004

**Q.** And the “glycan array binding signal (z-score)” value (Neu5Ac(a2-6)GalNAc)?
**A.** -0.329

**Q.** And the “glycan array binding signal (z-score)” value [40]?
**A.** 0.275

**Q.** And the “glycan array binding signal (z-score)” value [41]?
**A.** 2.71
